Laboratory results published in the supplement of paper PMC8291772.
± gives the standard error. The list shows a part of the results.

The sequences below were run against terminal deoxynucleotidyl transferase (calf thymus) (UniProt P06526) (assay: TdT poly-dT extension signal (Cy3 hybridisation fluorescence, uncapped minus capped) (fluorescence a.u.); higher = more efficient initiation of TdT extension). Conditions: initiator chemistry: L-DNA (mirror-image), free 5'-OH (3'-tethered via HEG linker).
Procedure: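 All mono- to pentamer D-DNA or L-DNA initiators were made by forward (3'->5') photolithographic in situ synthesis on glass on a hexaethylene glycol linker, leaving a free 5'-OH. Each was made in uncapped and DMTr-dT-capped versions, about 11 replicates each. Arrays were extended with calf thymus TdT (0.2 U/uL), 100 uM dTTP and 0.25 mM CoCl2 for 120 min at 37 C, hybridised with an rA18-Cy3 probe and scanned at 532 nm. The value is the mean uncapped minus the mean capped signal. IDs read 5'->3'. L-DNA is mirror-image; D-DNA 5'-OH initiators were below LOD (no extension).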

Chain of UniProt P06526 (P06526 whole entry): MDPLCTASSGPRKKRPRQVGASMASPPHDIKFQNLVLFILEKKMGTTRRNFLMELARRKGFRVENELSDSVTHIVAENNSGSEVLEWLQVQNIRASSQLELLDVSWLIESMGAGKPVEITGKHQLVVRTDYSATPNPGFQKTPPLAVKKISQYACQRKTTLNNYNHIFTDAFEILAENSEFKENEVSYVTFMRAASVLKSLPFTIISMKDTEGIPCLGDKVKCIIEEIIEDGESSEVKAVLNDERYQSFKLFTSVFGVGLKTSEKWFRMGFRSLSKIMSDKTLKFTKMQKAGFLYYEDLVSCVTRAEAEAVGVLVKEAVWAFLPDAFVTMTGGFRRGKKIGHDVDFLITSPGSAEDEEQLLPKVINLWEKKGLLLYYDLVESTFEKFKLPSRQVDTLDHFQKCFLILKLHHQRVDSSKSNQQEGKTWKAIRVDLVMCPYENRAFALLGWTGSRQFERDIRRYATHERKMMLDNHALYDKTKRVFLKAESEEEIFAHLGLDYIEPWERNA

Sequence | TdT poly-dT extension signal
CCAAG | 120 ± 9.5
AAGTT | 31.4 ± 4.1
CTGGT | 116 ± 6.9
GCGTT | 45.1 ± 5.2
GACAT | 97.5 ± 6.6
GTATC | 132 ± 12
AATTC | 76.8 ± 8.4
ACTTT | 70.7 ± 5.3
CCTGC | 61.6 ± 5.2
GGAGT | 69.5 ± 4.3
CAAT | 75.7 ± 9.8
GGTTT | 67.3 ± 7.5
CGTCT | 42.8 ± 5.1
CTGCC | 106 ± 12
GACA | 97.2 ± 8.2
ACAC | 94.6 ± 5.8
CCAT | 96.1 ± 12
CAGCA | 49.3 ± 3.8
CAAAA | 111 ± 8.8
TTGAA | 339 ± 42
TCGGT | 125 ± 12
GATC | 77.5 ± 6.2
AGTCA | 40.6 ± 5.2
TTAAC | 377 ± 27

Sequence | TdT poly-dT extension signal
AATCT | 80.2 ± 13
CAGAA | 73.9 ± 6.4
CTTCG | 133 ± 16
CGATA | 72.3 ± 7.8
AGAGG | 78.9 ± 7
CAGAT | 54.1 ± 7.5
CGTAA | 65.8 ± 9.3
CCTAG | 92.4 ± 6.2
TCTGT | 144 ± 8.7
GCTTT | 48.2 ± 6.4
AAGGG | 52.9 ± 6.3
CTCGC | 146 ± 15
TATG | 169 ± 11
AGTTC | 36.8 ± 6.5
AACGT | 66.7 ± 5.7
ACTCA | 79.4 ± 8.6
ATCAC | 188 ± 16
GCCCC | 74.3 ± 7.4
TAACT | 155 ± 19
CCGC | 75.7 ± 7.3
CCTCG | 76.3 ± 5.5
TGCG | 165 ± 17
TAGTA | 91.6 ± 7.5
GGCTA | 46.3 ± 4.8

Sequence | TdT poly-dT extension signal
ATCGA | 206 ± 17
GTCAG | 161 ± 18
ATACA | 204 ± 18
ACCAA | 101 ± 9
AGCCT | 45.4 ± 5
TCCGG | 280 ± 18
CTACA | 148 ± 16
CGCA | 54.4 ± 10
CTTGC | 107 ± 7.2
AATCA | 84.5 ± 5
TTCCC | 358 ± 31
TAGTC | 105 ± 6.7
CCGTG | 59.9 ± 5.3
GACAA | 98.3 ± 8.7
TGGTC | 81.9 ± 6.5
CAAGT | 63.5 ± 6
CTCTC | 129 ± 8.6
AAGA | 78 ± 11
GATGC | 82.1 ± 9.4
GCTCT | 77.8 ± 6.7
ACCG | 78.2 ± 8
GAGTA | 44.9 ± 6
CACCT | 62.2 ± 6.2
ATACT | 186 ± 17

Sequence | TdT poly-dT extension signal
CACGA | 77.6 ± 7
CCAGA | 91.5 ± 8.7
AGAG | 50.4 ± 5.5
ATGAT | 150 ± 9.9
AGGAT | 50.4 ± 5.5
TTTAA | 392 ± 18
GACGC | 93 ± 9.5
TCCAA | 255 ± 14
GACCT | 77.6 ± 11
AAGCG | 51.2 ± 6.2
TTTGG | 350 ± 26
CACAA | 76.2 ± 11
GCTGG | 76.7 ± 7.2
GCAAG | 103 ± 5.6
TTCAT | 372 ± 18
CAAAG | 109 ± 7.9
AGTGC | 38.4 ± 6.6
GCTAA | 92.6 ± 5.5
CCAGG | 92 ± 9.6
TGGGG | 118 ± 12
AGTCG | 36.7 ± 4.2
TCCTT | 191 ± 18
CGCTT | 45.2 ± 3.8
GAGGA | 63.7 ± 7.3

Sequence | TdT poly-dT extension signal
TATTC | 117 ± 14
CCCAA | 117 ± 11
TCCC | 173 ± 16
CCATA | 99.4 ± 8.2
GGTCG | 50.4 ± 6.5
ACAA | 85.9 ± 11
TAATC | 183 ± 13
GAGGG | 69.1 ± 13
CTATC | 168 ± 13
TGTAA | 143 ± 12
CCCC | 88.9 ± 7.5
ACCA | 87.8 ± 9.2
CTTAC | 153 ± 14
CGAG | 75.5 ± 12
GCTGT | 64.2 ± 6.7
TTCGG | 347 ± 20
GTAG | 159 ± 11
AGAGC | 70 ± 8.9
CAAAT | 91.9 ± 6.4
TTGGC | 283 ± 21
GACCA | 82.8 ± 8.6
TCCAG | 251 ± 13
GAGTG | 61 ± 6.3
ATTGT | 167 ± 9.2

Sequence | TdT poly-dT extension signal
ACCGC | 73.4 ± 6.5
GTTTC | 116 ± 9.9
CTTTA | 106 ± 9.8
TAGGT | 99.5 ± 6.8
GTGAC | 144 ± 9
TGCGC | 154 ± 12
CAGGG | 58.4 ± 12
ATAAG | 229 ± 14
AAAG | 72.7 ± 7.4
TCGG | 130 ± 12
GAGGT | 55.2 ± 5.3
AACAT | 88.7 ± 6.5
GCAT | 67.6 ± 6.6
AATAA | 128 ± 8.6
TTGTT | 234 ± 18
CGGAA | 50.7 ± 5.8
TCGTC | 92.2 ± 10
TCCGC | 195 ± 11
CATAC | 66.3 ± 7.3
CTCGT | 115 ± 9
GACCG | 98.1 ± 7.5
TAAAA | 227 ± 14
ACCTA | 79.2 ± 9.5
ACCAT | 97.4 ± 8.9

Sequence | TdT poly-dT extension signal
GCATC | 65.3 ± 9.6
CTATT | 162 ± 13
TTATA | 384 ± 22
GGCGC | 77.7 ± 6.3
AGCCC | 33.7 ± 4.8
CTAAT | 206 ± 15
GGGAC | 76.3 ± 6.6
AACGG | 77.3 ± 5.7
CATTC | 151 ± 95
TAACC | 156 ± 14
TCGCG | 126 ± 20
CCAGC | 90.8 ± 5.6
GAAAT | 88.9 ± 8.3
TCAGG | 179 ± 15
GCTTC | 58.7 ± 5.8
GTGTA | 102 ± 8.1
AAGTC | 52.3 ± 3.9
CATGA | 89.4 ± 9.4
GTGT | 77.5 ± 8.8
ACCAC | 99.1 ± 8.5
AATCG | 76.2 ± 10
GTGAG | 160 ± 13
GTTCA | 101 ± 10
AAGGC | 52.6 ± 3.7

Sequence | TdT poly-dT extension signal
TCCCA | 189 ± 14
CACTG | 62.3 ± 8.9
TGTGC | 104 ± 11
ATGCC | 109 ± 15
AGTAC | 53 ± 7.1
CCGGT | 59.2 ± 5.8
GCCCT | 73.4 ± 8.2
ATTGC | 134 ± 11
TACAG | 190 ± 14
ATGAG | 154 ± 10
CTCCA | 140 ± 11
TGACG | 168 ± 16
AAGTA | 50.8 ± 4.8
TTCCA | 299 ± 18
GAATA | 83.7 ± 7.6
AAAT | 76.4 ± 6.8
TGTGG | 141 ± 7.8
CCAC | 93 ± 7.6
TCAG | 155 ± 9.6
CATAG | 84 ± 9.1
GTGGG | 172 ± 9.4
CGCCG | 65.8 ± 7.1
CTCCG | 127 ± 11
CGGTA | 43.9 ± 5.9

Sequence | TdT poly-dT extension signal
CTGCG | 113 ± 9.6
ACAGC | 71 ± 5.8
GTTCG | 126 ± 14
GTCAA | 150 ± 9.5
CGTA | 62.5 ± 9.9
CGCAA | 59.8 ± 3.4
TCCTA | 193 ± 17
AACAA | 98.3 ± 10
ATTAG | 195 ± 19
GCTGC | 67.7 ± 5.5
CCACA | 97 ± 7.8
GTAGG | 181 ± 10
CTTGT | 122 ± 9.3
CTTCA | 130 ± 11
TTGTG | 240 ± 22
ATGCT | 116 ± 7.5
GGCAT | 73 ± 8.1
GCTA | 74.3 ± 8
GGATA | 75.3 ± 8.1
GGTGC | 53.2 ± 4.9
CCTTC | 57.1 ± 6.1
CGCTA | 55.8 ± 5
